According to PubChem BioAssay AID2675 (National Center for Advancing Translational Sciences (NCATS), 2010):
About 100 (0.036%) of roughly 280,000 compounds were called active. The inconclusive results got no clear call from the source; some entries with a clear call stand among them for comparison. Calls follow the shape of the dose curve; as a rule, active = well fitted inhibition curve with a large enough effect in the signal ratio, with a control signal flat (not every such curve was filed as active); inconclusive = small, poorly fitted or top-dose-only effect, or effect the other way, or a change in a side signal; inactive = no such curve, though single readings can be large or run the other way; the % refers to the signal ratio. Potencies of inconclusive entries are doubtful fits and often do not repeat. “Side channel” marks fits to a control or component signal instead of the main read-out.

molecular target: Muscleblind-like protein 1 (Homo sapiens) (UniProt Q9NR56); test: qHTS Assay for Inhibitors of MBNL1-poly(CUG) RNA binding; settings: TR-FRET MBNL1-His/biotin-(CUG)12 binding, 665/545 ratio; activity change, negative = inhibition: at 57.5 µM (top of the series)
Sequence of UniProt Q9NR56 (Q9NR56 whole entry, looked up): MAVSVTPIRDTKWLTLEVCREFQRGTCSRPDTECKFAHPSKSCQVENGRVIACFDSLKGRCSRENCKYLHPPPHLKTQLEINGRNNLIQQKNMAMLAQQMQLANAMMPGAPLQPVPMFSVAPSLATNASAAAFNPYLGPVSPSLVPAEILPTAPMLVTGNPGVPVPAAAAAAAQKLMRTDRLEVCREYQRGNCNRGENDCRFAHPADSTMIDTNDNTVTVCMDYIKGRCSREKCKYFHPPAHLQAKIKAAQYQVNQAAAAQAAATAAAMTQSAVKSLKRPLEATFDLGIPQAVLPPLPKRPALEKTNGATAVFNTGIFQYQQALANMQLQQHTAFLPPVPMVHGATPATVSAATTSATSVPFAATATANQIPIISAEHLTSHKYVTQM
Procedure, shortened: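 Ratiometric TR-FRET (665 over 545 nm, excitation 340 nm) tracks disruption of MBNL1-His/biotin-(CUG)12 complex after 60 min at room temperature, with compounds at 92 nM to 58 uM final.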
% is scaled to controls: 0 for no effect and ±100 for the full control effect; potency is read from the fitted curve at half-maximal effect; tags tell the direction and shape of the fitted curve or compound fluorescence and quenching.

Which Potency does the source give for `Cc1ccc(S(=O)(=O)N=Nc2c(O)[nH]c3ccccc23)cc1C` here?
Its Potency is inconclusive: 28.2 µM [quencher, side channel, single point].

`CS(=O)(=O)c1ccc(-c2csc(-c3cccnc3)n2)cc1` was tested. Which Potency did it give?
The Potency was inconclusive: 17.8 µM [quencher, side channel, partial curve].

Which Potency does the source give for `O=C(CN1C(=O)c2ccc(Br)cc2C1=O)NCC1CCCO1` (centres undefined) here?
The Potency was inconclusive: 39.8 µM [quencher, single point].

With `COc1cccc(N=Nc2ccc(O)c3ncccc23)c1` as the molecule, how does the Potency read?
The Potency was inconclusive: 25.1 µM [quencher, side channel, single point].

`N#Cc1c(NC(=O)CSC2=NCCS2)sc2c1CCCC2` was tested. Which “activity change, negative = inhibition” value did it give?
Its value is inactive: 0.638%.

For `Cc1ccc(-c2ccc(/C=C3\C(=O)ON=C3c3ccccc3)o2)c([N+](=O)[O-])c1`, which “activity change, negative = inhibition” value is on record?
The value was inactive: 15.4%.

With `C(=C\c1ccco1)/c1nc2ccccc2[nH]1` as the molecule, how does the Potency read?
The Potency was inconclusive: 31.6 µM [quencher, side channel, partial curve].

`Cc1nc(C)c(-c2csc(Nc3ccccn3)n2)s1` was tested. Which Potency did it give?
Its Potency is inconclusive: 7.94 µM [quencher, side channel, full curve, poor fit].

For `CCOc1ccc(Br)cc1C(=O)Nc1ccc(C(=O)NCC(C)C)cc1`, which “activity change, negative = inhibition” value is on record?
The value was inactive: -21.3%.

With `COc1cccc(NC(=O)CN(C)CC(=O)Nc2ccc(C)c([N+](=O)[O-])c2)c1` as the molecule, how does the Potency read?
The Potency was inconclusive: 15.8 µM [quencher, side channel, partial curve].

How did the “activity change, negative = inhibition” value turn out when `Cc1nc(Nc2ccc(Cl)cc2)c2nnn(Cc3ccccc3)c2n1` was run?
Its value is inactive: 9.84%.

How did the Potency turn out when `O=C(O)CCCCCN1C(=O)C(O)=C(C(=O)/C=C/c2ccccc2)C1c1ccccc1[N+](=O)[O-]` (centres undefined) was run?
The Potency was inconclusive: 22.4 µM [quencher, side channel, single point].

For `COc1ccc2nc(/C(C#N)=C\c3ccc(C(=O)O)cc3)[nH]c2c1`, which Potency is on record?
The Potency was inconclusive: 28.2 µM [quencher, single point].

`C(=N\n1cnnc1)/c1ccc(N2CCOCC2)cc1` was tested. Which Potency did it give?
The Potency was inconclusive: 20 µM [quencher, side channel, partial curve].

For `COc1ccc(CCNC(=O)C2CCCN(c3ncccn3)C2)cc1` (centres undefined), which “activity change, negative = inhibition” value is on record?
Its value is inactive: -3.47%.

How did the Potency turn out when `COc1cccc(NC(=O)c2ccc(-n3cccn3)nc2)c1` was run?
Its Potency is inconclusive: 15.8 µM [fluorescent, side channel, partial curve].

How did the Potency turn out when `O=C(c1cccc(F)c1)N1CCN(c2ccc([N+](=O)[O-])c(N3CCOCC3)c2)CC1` was run?
Its Potency is inconclusive: 7.08 µM [quencher, side channel, partial curve].

With `O=C(CCN1C(=O)c2cccc3cccc(c23)C1=O)NC1CCS(=O)(=O)C1` (centres undefined) as the molecule, how does the Potency read?
Its Potency is inconclusive: 2.51 µM [quencher, side channel, full curve].

With `COc1ccc(NC(=O)/C=C/c2ccc(Br)o2)cn1` as the molecule, how does the activity change, negative = inhibition read?
Its activity change, negative = inhibition is inconclusive: 16.4% [phenotype inactive].

For `CCc1n[nH]c(=S)n1/N=C/c1cc(OC)cc([N+](=O)[O-])c1O`, which Potency is on record?
Its Potency is inconclusive: 25.1 µM [quencher, side channel, partial curve].

Which Potency does the source give for `Clc1ccc(OCCCCCN2CCCC2)c(Br)c1` here?
Its Potency is inconclusive: 2.82 µM [fluorescent, side channel, partial curve].

`Nc1c(C(=O)Nc2ccccc2F)sc2nc(-c3cccnc3)ccc12` was tested. Which Potency did it give?
The Potency was inconclusive: 8.91 µM [quencher, side channel, partial curve].

For `c1ccc(-c2csc(-c3ccncc3)n2)cc1`, which Potency is on record?
Its Potency is inconclusive: 14.1 µM [quencher, side channel, partial curve].

Which “activity change, negative = inhibition” value does the source give for `Cc1nc(-c2cnn(-c3ccccc3)c2)c2cc(C)oc2n1` here?
The value was inactive: 5.91%.

For `Cc1c(/C(O)=C2/C(=O)C(=O)N(Cc3cccnc3)C2c2cccs2)cnn1-c1ccccc1` (centres undefined), which Potency is on record?
The Potency was inconclusive: 15.8 µM [quencher, side channel, partial curve].

How did the “activity change, negative = inhibition” value turn out when `COc1ccc2sc(N(CCN(C)C)C(=O)/C=C/c3cccs3)nc2c1` was run?
The value was inactive: -12.1%.

How did the “activity change, negative = inhibition” value turn out when `Clc1cccc(Cl)c1CNCCCSc1ncccn1` was run?
The value was inactive: -4.35%.

Which Potency does the source give for `Cc1ccc2nc3c(cc(S(=O)(=O)c4ccccc4)c(=N)n3Cc3ccco3)c(=O)n2c1` here?
Its Potency is inconclusive: 12.6 µM [quencher, side channel, partial curve].

For `O=C(CCc1nnc2n(Cc3ccc(Cl)cc3)c(=O)c3ccccc3n12)N1CCN(c2ccccn2)CC1`, which Potency is on record?
Its Potency is inconclusive: 8.91 µM [quencher, side channel, single point].

For `CC(=O)Nc1ccc(Nc2ccc3nonc3c2[N+](=O)[O-])cc1`, which Potency is on record?
Its Potency is inconclusive: 7.08 µM [quencher, side channel, partial curve].

Which Potency does the source give for `O=C(/C=C/c1cccc([N+](=O)[O-])c1)OCC(=O)c1ccccc1` here?
Its Potency is inconclusive: 1.78 µM [quencher, side channel, full curve].

How did the Potency turn out when `O=C(NCc1cccnc1)c1cccc(F)c1` was run?
The Potency was inconclusive: 4.47 µM [quencher, side channel, single point].

For `O=c1c([N+](=O)[O-])cccn1Cc1cccc(Br)c1`, which Potency is on record?
Its Potency is inconclusive: 15.8 µM [quencher, partial curve].

Which Potency does the source give for `O=C(COC(=O)C1CCN(S(=O)(=O)c2cccc3cccnc23)CC1)c1ccc([N+](=O)[O-])cc1` here?
Its Potency is inconclusive: 15.8 µM [quencher, partial curve].

`Cc1occc1C(=O)Nc1ccc2c(c1)OCCO2` was tested. Which “activity change, negative = inhibition” value did it give?
Its value is inactive: 0.442%.

Which Potency does the source give for `Cc1nn(CC(=O)OC(C)C(=O)Nc2ccccc2[N+](=O)[O-])c(C)c1[N+](=O)[O-]` (centres undefined) here?
The Potency was inconclusive: 39.8 µM [activator, single point].

Which Potency does the source give for `O=C(c1ccc(Oc2ccc([N+](=O)[O-])cc2Cl)cc1)N1CCCC1` here?
The Potency was inconclusive: 2 µM [quencher, side channel, full curve].

`CN(C)c1ccc(/C=N/NC(=O)c2ccn(C)n2)cc1` was tested. Which Potency did it give?
The Potency was inconclusive: 22.4 µM [quencher, side channel, partial curve, poor fit].

With `O=C(NCc1ccco1)/C(=C\C=C\c1ccccc1)NC(=O)c1ccccc1Br` as the molecule, how does the Potency read?
The Potency was inconclusive: 10 µM [quencher, partial curve].
